According to the supplement of paper PMC10126150:
Values marked as one replicate rest on one cluster of the flow cell; about a third of the high ones do not repeat.

The sequences below were run on ATP (assay: switch fluorescence ratio, 500 uM ATP over buffer (Cy3 cluster intensity, sum of 5 cycles each) (fold (ratio)); higher = stronger signal-on switching upon ATP binding; sequences stand for … in TCGTCGGCAGCGTCAGATGTGTATAAGAGACAGTTTTTTTTTTTTTTTTTTTTTTTTT…TC). Settings: aptamer strand: ATP DNA aptamer (quencher-CACCTGGGGGAGTATTGCGGAGGAAGG + anchor), 100 nM annealed; ATP concentration: 500 uM; one replicate.
Procedure, shortened: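 Switching-strand clusters labelled with Cy3 on a modified Illumina MiSeq flow-cell were annealed to 100 nM quencher-labelled ATP aptamer, imaged in selection buffer, and re-imaged after 15 min with 500 uM ATP at 22 °C. This was done over five cycles with NaOH stripping and re-annealing in between. The fluorescence ratio is summed target-cycle over summed buffer-cycle Cy3 intensity per cluster, averaged per switch-domain sequence, excluding clusters outside 100-1000 RFU.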
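Note: ATP exposure 15 min at 22 °C before imaging.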

Sequence	switch fluorescence ratio
CTGAAGCGTA	1.12
ATCGCAGGGG	1.14
AAGCTCTACG	1.03
CCGTTAGTCA	1.13
CTAGAGTATG	0.983
AAAGTTGTAC	1.08
GACGGTGGTG	0.934
TCGCGACAA	1.02
ACCAGTACAT	1.1
ACAGGCTTGA	0.981
TATCGCTACT	1.69
GTAAATCTCT	1.01
TCGGACCGGT	1
CAATTCGATG	1.04
TCGAGCTCGT	1.04
ATCTATCGGG	0.972
CTCATACGCC	1.58
TTCGCCACT	0.949
CTACGTTTGA	1.02
TGGCTAACTT	0.998
TCAAGCGCTC	1.18
TCTCGCCTTG	0.96

Sequence	switch fluorescence ratio
GATATAGAA	0.985
TAAACAGTGC	1.29
TTTAGTATCT	1.02
AAGGGGTGCG	1.11
CAACTCTTTA	1.03
CCGGTAAAGC	1.31
TCTGGGCAAG	1.12
ACACGATATC	1.24
GCGCTTTAGC	1.03
AACGTGGGGG	0.976
TTGCGGCATT	0.993
CTGCTGACGA	1.12
CCTCAGAAGG	1.14
GCGCCCTGTC	1.08
CTCTTGGAGT	0.985
TCTGGTGGGA	1.01
TATTAAGGTC	1.02
TAAAACTC	0.971
AGGGTGCTGA	0.989
TATCGTGGAA	1.03
GTCAACGTTC	0.936
TCACATTCTC	1.06

Sequence	switch fluorescence ratio
ACGTCCGGA	0.96
CTGGCACGTG	0.991
TTGGCTTTGC	0.997
ATCTACGGTC	1.01
ATCTTTGT	0.977
ATGCTAGTGG	0.99
GATGGGTCAC	0.979
AGTCATCTCT	0.98
GTTTGAACCC	0.975
GGACTGTGTT	0.983
AACAGGTCGG	0.985
GCAGGATT	0.983
GAGCACCGCC	1.07
GAGTCGGGTG	1.04
TATGAGGCAT	1.05
AAACCGAATT	1.08
ACATCGTCAA	1.14
CCAAAGATTC	1.11
GGTATTAAC	0.997
TGACCGCGAG	1.03
CTACGTAGCA	1.45
CGACATCAGT	0.966

Sequence	switch fluorescence ratio
ACAGGAAGGA	1.01
GGACATTATC	0.995
ATATCGCTGC	1.12
GCATGAGCGA	1.06
TAAGTACTAA	1.22
GGAGGGCGAT	1
GAGACACCTT	1.11
AACTTTGCTA	1.05
GTTAGCAAGA	1.23
GTTAGACCGA	1.03
TAAAGAATTC	0.958
ACTAACAAGC	1.09
TGCGATGGGA	1.01
GATGTACACT	1.03
ACAGCAAGGG	1.07
GTCTTTCCGT	0.977
TTAGATGGGT	1
ACATGTTAAG	1.02
CTTTTACATC	0.985
